Reference: PubChem BioAssay AID310 (DTP/NCI, 2004)
Records with an inconclusive call do not appear. Certain results were filed several times, with different values. This is not the full list of results. An entry can have further records. Values given together are repeats across runs, samples, wells, individuals or studies.

Tested on: C3AKF1 mice, osteogenic sarcoma HE10734 s.c., tumor weight T/C
Test: NCI In Vivo Anticancer Drug Screen. Data for tumor model Osteogenic Sarcoma HE 10734 (subcutaneous) in C3AKF1 (CHKRF1) mice
Conditions: endpoint: mean tumor weight, schedule: Q01DX010 (ip), higher = larger tumour
Protocol: The antitumor activity of compounds was measured in mice bearing transplantable tumors. Survival or tumor size were measured and the results are expressed as the measurement made in the treated group (T) divided by the measurement made in the vehicle treated control group (C). The tumor model used in this assay is Osteogenic Sarcoma HE 10734 (subcutaneous) in C3AKF1 (CHKRF1) mice

[1] = dose: 200.0 mg/kg/injection, vehicle: saline
[2] = dose: 250.0 mg/kg/injection, vehicle: saline

With `ClCCn1cnc2c(SCc3ccccc3)ncnc21` the T/C [1] was 40 % of control and 90 % of control.
In the case of `NC(=O)c1ccc(NC(=O)CCC(=O)Nc2ccc(C(N)=O)cn2)nc1`, the T/C (dose: 0.83 mg/kg/injection, vehicle: carboxymethylcellulose (CMC)) is reported as 27 % of control and 91 % of control.
In the case of `CCC(=O)NC1=C(N2CC2)C(=O)C(NC(=O)CC)=C(N2CC2)C1=O`, the T/C (dose: 0.6 mg/kg/injection, vehicle: saline) is reported as 42 % of control and 81 % of control.
In the case of `O=P1(N(CCCl)CCCl)NCCCO1` (stereo not drawn), the T/C (dose: 12.5 mg/kg/injection, vehicle: saline) is reported as 20 % of control and 157 % of control.
`CS(=O)(=O)OC[C@@H](O)[C@@H](O)COS(C)(=O)=O` was tested, and the T/C (dose: 250.0 mg/kg/injection, vehicle: carboxymethylcellulose (CMC)) was 77 % of control and 107 % of control.
In the case of `O=c1n(CCCl)c(=O)n(CCCl)c(=O)n1CCCl`, the T/C [2] is reported as 62 % of control and 123 % of control.
With `c1ccc(CSc2ncnc3nc[nH]c23)nc1` the T/C (dose: 25.0 mg/kg/injection, vehicle: saline) was 59 % of control and 99 % of control and the T/C [1] was 7 % of control, 28 % of control, 43 % of control.
For `Clc1ncnc2c1ncn2C1CCCO1` (stereo not drawn), the T/C (dose: 75.0 mg/kg/injection, vehicle: saline) was 38 % of control and 82 % of control, the T/C (dose: 150.0 mg/kg/injection, vehicle: saline) was 34 % of control and 63 % of control and the T/C (dose: 300.0 mg/kg/injection, vehicle: saline) was 55 % of control, 70 % of control, 88 % of control.
In the case of `Cc1nc(N)nc(N)c1-c1ccc(Cl)c(Cl)c1`, the T/C (dose: 0.75 mg/kg/injection, vehicle: carboxymethylcellulose (CMC)) is reported as 28 % of control and 79 % of control.
In the case of `CN(C)c1ccc(/C=C\c2ccnc3ccccc23)cc1`, the T/C (dose: 1.25 mg/kg/injection, vehicle: carboxymethylcellulose (CMC)) is reported as 79 % of control and 107 % of control, the T/C (dose: 5.0 mg/kg/injection, vehicle: carboxymethylcellulose (CMC)) is reported as 56 % of control and 110 % of control and the T/C (dose: 10.0 mg/kg/injection, vehicle: carboxymethylcellulose (CMC)) is reported as 48 % of control, 90 % of control, 95 % of control. The T/C (dose: 33.0 mg/kg/injection, vehicle: carboxymethylcellulose (CMC)) was 59 % of control and 85 % of control.
For `NC(CCSCc1ccc(N(CCCl)CCCl)cc1)C(=O)O` (stereo not drawn), the T/C (dose: 18.0 mg/kg/injection, vehicle: saline) was 36 % of control and 76 % of control and the T/C (dose: 36.0 mg/kg/injection, vehicle: saline) was 37 % of control, 59 % of control, 80 % of control.
For `O=C(O)C1(NO)CCCC1`, the T/C (dose: 56.0 mg/kg/injection, vehicle: saline) was 39 % of control and 80 % of control.
With `C/C=C1\CN(C)[C@H]2Cc3c([nH]c4ccccc34)[C@@H](c3cc4[nH]c5c(c4cc3OC)CCN3C[C@H]4C[C@H](CC)[C@H]3[C@@]5(C(=O)OC)C4)C[C@H]1C2C(=O)OC` (stereo partly drawn) the T/C (dose: 13.0 mg/kg/injection, vehicle: water) was 73 % of control and 101 % of control and the T/C (dose: 45.0 mg/kg/injection, vehicle: water) was 26 % of control and 53 % of control.
For `C=CCn1c(=O)n(CC=C)c(=O)n(CC=C)c1=O`, the T/C [2] was 44 % of control and 72 % of control.
With `CN(N=O)C(N)=O` the T/C (dose: 7.0 mg/kg/injection, vehicle: carboxymethylcellulose (CMC)) was 38 % of control and 107 % of control.
